Article PMC9911399, “Two distinct binding modes provide the RNA-binding protein RbFox with extraordinary sequence specificity”
Substitutions are numbered along the chain they refer to; changes in the protein carry UniProt numbers. The list shows a part of the results.

T1: RBFOX1 RRM RbFoxmut (Fox-RRM*) (Homo sapiens, UniProt Q9NWB1 109-208, R118D;E147R;N151S;E152T)
T1 sequence: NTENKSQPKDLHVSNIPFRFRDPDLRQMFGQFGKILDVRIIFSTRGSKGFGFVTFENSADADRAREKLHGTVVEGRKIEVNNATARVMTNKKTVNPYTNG

B1: UACCCAU (DNA:RNA)
RNA: GGGAGACCGGAAUUCAGAUUGUCCUACCCAUUUAAAUCCCGUCGUAGCCACCA
DNA 1: CAATCTGAATTCCGGTCTCCC
DNA 2: TGGTGGCTACGACGGGATT
B2: CUCUCCA (DNA:RNA)
RNA: B1 RNA with U25C, A26U, C28U, A30C, U31A
DNA 1: CAATCTGAATTCCGGTCTCCC
DNA 2: TGGTGGCTACGACGGGATT
B3: AUCUCGC (DNA:RNA)
RNA: B1 RNA with U25A, A26U, C28U, A30G, U31C
DNA 1: CAATCTGAATTCCGGTCTCCC
DNA 2: TGGTGGCTACGACGGGATT
B4: AGCUCCG (DNA:RNA)
RNA: B1 RNA with U25A, A26G, C28U, A30C, U31G
DNA 1: CAATCTGAATTCCGGTCTCCC
DNA 2: TGGTGGCTACGACGGGATT
B5: CACAAGU (DNA:RNA)
RNA: B1 RNA with U25C, C28A, C29A, A30G
DNA 1: CAATCTGAATTCCGGTCTCCC
DNA 2: TGGTGGCTACGACGGGATT
B6: GGCAGUC (DNA:RNA)
RNA: B1 RNA with U25G, A26G, C28A, C29G, A30U, U31C
DNA 1: CAATCTGAATTCCGGTCTCCC
DNA 2: TGGTGGCTACGACGGGATT
B7: UUCUUCU (DNA:RNA)
RNA: B1 RNA with A26U, C28U, C29U, A30C
DNA 1: CAATCTGAATTCCGGTCTCCC
DNA 2: TGGTGGCTACGACGGGATT
B8: CUCGGUA (DNA:RNA)
RNA: B1 RNA with U25C, A26U, C28G, C29G, A30U, U31A
DNA 1: CAATCTGAATTCCGGTCTCCC
DNA 2: TGGTGGCTACGACGGGATT
B9: CUGCUCA (DNA:RNA)
RNA: B1 RNA with U25C, A26U, C27G, C29U, A30C, U31A
DNA 1: CAATCTGAATTCCGGTCTCCC
DNA 2: TGGTGGCTACGACGGGATT

target: T1, RBFOX1 RRM RbFoxmut (Fox-RRM*); assay: EMSA; HiTS-Eq, 1 nM pool, 10 min; buffer printed only for the single-RNA assays: 10 mM Tris pH 7.5, 150 mM NaCl, 3.4 mM EDTA, 0.001% NP-40, 30 C; settings: tags: His6 N-terminal (pET28a); label: 5' 32P
Outline: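 Purified RbFox RRM (wild type or mutant) was equilibrated for 10 min in 50 µL with 1 nM of a 5′-radiolabelled pool of RNA with 7 randomized nucleotides, its flanks annealed to DNA oligonucleotides, across increasing protein concentrations. Free RNA was separated by 8% native PAGE, excised, reverse-transcribed, PCR-barcoded and sequenced on an Illumina HiSeq 2500. Relative association constants came from read-count changes of each variant against the control reaction, normalised to the cognate motif.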

Binder	binding signal
B1	0.0905 KA relative to UGCAUGU
B2	0.0848 KA relative to UGCAUGU
B3	0.0993 KA relative to UGCAUGU
B4	0.0767 KA relative to UGCAUGU
B5	0.0957 KA relative to UGCAUGU
B6	0.113 KA relative to UGCAUGU
B7	0.0691 KA relative to UGCAUGU
B8	0.176 KA relative to UGCAUGU
B9	0.126 KA relative to UGCAUGU
